The record followed here is the RNAGym collection of RNA variant scans (doi:10.7554/elife.90254).

B1: LINE1-full (parent)
chain: UACGUAGGUGGUUUUCCCCUGAUAGUGCUAAGGGGGCCUGGAAGUUUGGACUGGGCAGAGCUCAACACAGCGUGGCAAAGUGGCUGUGGCUAGACUGCCUCUCUGGAUUCCUCGUCACUCAGCAGGGCAUCUCUGAGAGAAAUGCC

Read counts are not given, so values of variants with three or more changes are uncertain.

The data set covers variants of B1. The data set is described as follows: self-cleavage, relative activity (ratio to wild type); higher = more cleavage; in vitro, sequencing; the parent is a self-cleaving ribozyme.
Turning to UACGUAGGUGGUUUUCCCCCGAUAGUGCUAAGGGGGCCUGGAAGUUUGGACUGGGCAGAGCUCAACACAGCGUGGCAAAGUGGCUGUGGCUAGACUGCCUCUCUGGACUCCUCGUCACUCAGCAGGGCAUCUCUGAGAGGAAUGCC [U20C U108C A140G], the self-cleavage stood at 2.83.

For the variant UACGUAGGUGGUUUUCCCCCGAUAGUGCUAAGGGGGCCUGGAAGUUUGGACUGGGCAGAGCUCAACACAGCGUGGCAAAGUGGCUGCGGCUAGACUGCCUCUCUGGAUUCCUCGUCACUCAGCAGGGCGUCUCUGAGUGAAAUGCC [U20C U87C A129G A138U], the self-cleavage came out at 0. The result for UACGUAGGUGGUUUUCCCCCGAUAGUGCUAAGGGGGCCUGGAAGUUUGGACUGGGCAGAGCUCAACACAGCGUGGCAAAGUGGCUGUGGCUAGACCGCCUCUCUGGAUUCCUCGUCACUCAGCAGGGCAUCUCUGAGGGAAACGCC [U20C U96C A138G U143C] reads 0.42. The value for UACGUAGGUGGUUUUCCCCCGAUAGUGCUAAGGGGGCCUGGAAGUUUGGACUGGGCAGAGCUCAACACAGCGUGGCAAAGUGGCUGUGGCUAGACUGCCUCUCAGGAUUCCUCGACACUCAGCAGGGCAUCUCUGAGAGAAAUGCC [U20C U104A U115A] was 1.37. For the variant UACGUAGGUGGUUUUCCCCCGAUAGUGCUAAGGGGGCCUGGAAGUUUGGACUGGGCAGAGCUCAACACAGCGUGGCAAAGUGGCUGUGGCCAGACUGCCUCUCUGGAUUCCUCGUCACUCAGCAGGGCAUCUCUGAGAGAUAUGCC [U20C U91C A141U], the self-cleavage turned out to be 0.71. With UACGUAGGUGGUUUUCCCCCGAUAGUGCUAAGGGGGCCUGGAAGUUUGGACUGGGCAGAGCUCAACACAGCGUGGCAAAGGGGCUGUGGCUAGACUGCCUCUCUGGAUUCCUCGUCGCUCAGCAGGGCAUCUCUGAGAGAAAUGCC [U20C U81G A117G], the self-cleavage was 0.77. The result for UACGUAGGUGGUUUUCCCCCGAUAGUGCUAAGGGGGCCUGGAAGUUUGGACUGGGCAGAGCUCAACACAGCGUGGCAAAGUGGCUGUGGCUAGACUGCCUCUCUGGACUCCUCGUCACUCAGCAGGGCACCUCUGAGAGAAAUGCC [U20C U108C U130C] reads 1.23. The value for UACGUAGGUGGUUUUCCCCCGAUAGUGCUAAGGGGGCCUGGAAGUUUGGACUGGGCAGAGCUCAACACAGCGUGGCAAAGUGGCUGUGGCUAGACCGCCUCUCUGGAUUCCUCGUCACUCCGCAGGGCAUCUCUGAGAGAAAUGCC [U20C U96C A121C] was 0. The result for UACGUAGGUGGUUUUCCCCCGAUAGUGCUAAGGGGGCCUGGAAGUUUGGACUGGGCAGAGCUCAACACAGCGAGGCAAAGUGGCUGUGGCUGGACUGCCUCUCUGGAUUCCUCGUCACUCAGCAGGGCAUCUCUGAGGGAAAUGCC [U20C U73A A92G A138G] reads 0.29. Consider UACGUAGGUGGUUUUCCCCCGAUAGUGCUAAGGGGGCCUGGAAGUUUGGACUGGGCAGAGCUCAACACAGCGUGGCAAAGUGGCUGUGGCUAGACUGCCCCUCUGGAUUCCUCGUCACUCAGCAGGGCAUCUCUGAGAGAAAUACC [U20C U100C G144A], for which the self-cleavage was found to be 1.38. Take UACGUAGGUGGUUUUCCCCCGAUAGUGCUAAGGGGGCCUGGAAGUUUGGACUGGGCAGAGCUCAACACAGCGUGGCAAAGUGGCCGUGGCUAGACUGCCUCUCAGGAUUCCUCGUCACUCAGCAGGGCAUCUCUGAGAGAAAUGCC [U20C U85C U104A]: the self-cleavage was 0.15. The result for UACGUAGGUGGUUUUCCCCCGAUAGUGCUAAGGGGGCCUGGAAGUUUGGACUGGGCAGAGCUCAACACAGCGUGGCAAAGUGGCCGUGGCUGGACUGCCUCUCUGGAUUCCUCGUCACUCAGCAGGGCGUCUCUGAGAGAAACGCC [U20C U85C A92G A129G U143C] reads 0; that for UACGUAGGUGGUUUUCCCCCGAUAGUGCUAAGGGGGCCUGGAAGUUUGGACUGGGCAGAGCUCAACACAGCGUGGCAAAGGGGCUGUGGCUAGACUGCCUCUCUGGAUCCCUCGUCACUCAGCAGGGCAUCUCUGAGAGAAGUGCC [U20C U81G U109C A142G], 0.82; that for UACGUAGGUGGUUUUCCCCCGAUAGUGCUAAGGGGGCCUGGAAGUUUGGACUGGGCAGAGCUCAACACAGCGUGGCAAAGUGGCCGUGGCUAGACUGCCUCUCUGGAUUCCUCGUCACUCAGAAGGGCAUCUCUGAGAGAAAUGCC [U20C U85C C123A], 0.29.

For UACGUAGGUGGUUUUCCCCCGAUAGUGCUAAGGGGGCCUGGAAGUUUGGACUGGGCAGAGCUCAACACAGCGUGGCAAAGUGGCCGUGGCUAGACAGCCUCUCCGGAUUCCUCGUCACUCAGCAGGGCAUCUCUGAGAGAAAUGCC [U20C U85C U96A U104C], the self-cleavage was found to be 0. The result for UACGUAGGUGGUUUUCCCCCGAUAGUGCUAAGGGGGCCUGGAAGUUUGGACUGGGCAGAGCUCAACACAGCGUGGCAAAGUGGCUGUGGCUAGACUGCCACUCUGGAUUCCUCGUCACUCAGCAGGGCCUCUCUGAGAGAAAUGCC [U20C U100A A129C] reads 1.08. The result for UACGUAGGUGGUUUUCCCCCGAUAGUGCUAAGGGGGCCUGGAAGUUUGGACUGGGCAGAGCUCAACACAGCGCGGCAAAGUGGCUGUGGCUAGACUGCCUCUCUGGAUUCCUCGUCACUCAGCAGGGCAUCUCUGAGAGAGGUGCC [U20C U73C A141G A142G] reads 1.53; that for UACGUAGGUGGUUUUCCCCCGAUAGUGCUAAGGGGGCCUGGAAGUUUGGACUGGGCAGAGCUCAACACAGCGUGGCAAAGUGGCUGUGGCUAGACUGCCUCUCUGGAAUCCCCGUCACUCAGCAGGGCAUCUCUGAGAGAAAUGCC [U20C U108A U112C], 1.28. The value for UACGUAGGUGGUUUUCCCCCGAUAGUGCUAAGGGGGCCUGGAAGUUUGGACUGGGCAGAGCUCAACACAGCGUGGCAAAGUGGCUGUGGCUAGACUGCCUCCCUGGAUUCCUCGUCACUCAGCAGGGCAUCUCUGAGCGAAAUGCC [U20C U102C A138C] was 1.6. As to UACGUAGGUGGUUUUCCCCCGAUAGUGCUAAGGGGGCCUGGAAGUUUGGACUGGGCAGAGCUCAACACAGCGUGGCAAAGUGGCUGGGGCUAGACUGCCUCUCAGGAUUCCUCGUCACUCAGCAGGGCAUCUCUGAGAGAAAUGCC [U20C U87G U104A], the self-cleavage came out at 0.26.
